# Assay results taken from the supplement of paper PMC3334620.
# The full ranking holds about 33,000 sequences; the median of “E-score (-0.5 to 0.5)” is about -0.032, and the highest 2% start at about 0.36. Some of the results follow.
# Biological target: T1, Sko1 (UniProt Q02100)
# T1 sequence: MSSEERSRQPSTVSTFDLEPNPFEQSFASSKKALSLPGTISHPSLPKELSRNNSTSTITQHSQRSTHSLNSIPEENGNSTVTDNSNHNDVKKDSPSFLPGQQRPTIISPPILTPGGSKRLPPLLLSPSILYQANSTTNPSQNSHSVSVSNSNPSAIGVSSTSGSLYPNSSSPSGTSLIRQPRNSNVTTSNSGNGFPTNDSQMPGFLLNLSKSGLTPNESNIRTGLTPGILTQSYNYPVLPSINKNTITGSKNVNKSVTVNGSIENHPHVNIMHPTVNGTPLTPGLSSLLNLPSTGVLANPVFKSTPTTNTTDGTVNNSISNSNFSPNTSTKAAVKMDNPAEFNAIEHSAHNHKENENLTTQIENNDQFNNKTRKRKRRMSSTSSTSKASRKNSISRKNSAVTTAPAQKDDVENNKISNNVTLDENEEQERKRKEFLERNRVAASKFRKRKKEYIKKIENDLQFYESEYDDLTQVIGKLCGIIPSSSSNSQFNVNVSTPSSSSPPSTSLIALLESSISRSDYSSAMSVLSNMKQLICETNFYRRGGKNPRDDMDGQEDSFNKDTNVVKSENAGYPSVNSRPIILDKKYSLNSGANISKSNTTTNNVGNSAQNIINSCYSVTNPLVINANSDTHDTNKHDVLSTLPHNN
# Test: PBM E-score (8-mer binding enrichment) (E-score (-0.5 to 0.5)); higher = stronger / more preferred TF binding; most listed sequences are background and not binding sites
# Conditions: protein concentration: 200 nM; construct: GST-full length
# Method in brief: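 E-scores (a modified Wilcoxon-Mann-Whitney statistic) were assigned by the Universal PBM Analysis Suite to every ungapped eight-base word pooled with its reverse complement. The input came from universal all-10-mer Agilent arrays made double-stranded by primer extension and probed with GST-tagged yeast transcription factors at about 100-200 nM. Fluorescent anti-GST detected bound protein, and masliner normalised the scans.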
row,Sequence,PBM E-score
1,AAATTATG,0.253
2,CGCATCTA,0.182
3,CATGTCCC,-0.146
4,CCGTTAAG,-0.113
5,GATCAGCC,-0.292
6,TGCAATAA,0.119
7,CGGTAGAA,-0.302
8,ATTGACGG,0.0348
9,CGGATTGA,3e-05
10,AACGTGAC,0.277
11,AGTTTGGG,-0.0813
12,AGCGGATC,-0.206
13,AATCAGTG,-0.121
14,AATGATGC,0.35
15,AGCAAAAC,0.0756
16,GCCCTTAC,-0.103
17,ACCACCAG,-0.181
18,CTATAAGA,-0.0703
19,GCGGGCAC,-0.199
20,CAGGGGCC,-0.211
21,ACTCGAGA,-0.107
22,GTCATCGA,0.331

row,Sequence,PBM E-score
1,TCCGTCGA,-0.0164
2,CTCCTCAG,-0.318
3,TCGAAACA,0.191
4,CTTCCAGC,-0.253
5,TCCTGCGA,-0.00234
6,ATGCTTTA,0.16
7,GGCGCGCA,-0.0526
8,CGGAGGTA,-0.261
9,AGCTTTTC,0.0539
10,AGAGGTCG,-0.199
11,CTTGTAAC,0.0401
12,AGGTTACG,0.275
13,CTCGAGTA,0.0724
14,GTAAGCAA,0.0702
15,ACATTAGT,-0.102
16,CCGCAGTA,-0.299
17,TACGAGGA,0.0426
18,AATACTTA,0.178
19,ATACTTAA,0.211
20,TAATTCGA,0.198
21,CTTTTGGC,-0.00678
22,AATGCAAC,0.0487

row,Sequence,PBM E-score
1,CTGACATC,0.21
2,ATTTCAGC,-0.0364
3,CAGTTTAA,0.0363
4,ACCTGGGA,-0.12
5,CGGCAGTA,-0.303
6,AGGTAGAG,-0.12
7,ACAGCGAC,0.0149
8,ATTCCCGG,-0.0536
9,AAAAATAA,0.193
10,TTAAGAAA,0.113
11,AGAAAATA,0.157
12,CACGTGGG,0.281
13,CCCGGTCC,-0.35
14,GCTCAAGC,-0.242
15,GGCCCATA,-0.146
16,AAGCTTGC,0.0431
17,GGACGCTA,-0.14
18,CCGTAGAA,-0.14
19,ACCGCGAC,0.021
20,CTAGATAG,-0.196
21,ATACGGAA,0.141
22,ACCTGCCT,-0.183

row,Sequence,PBM E-score
1,CCGATCGA,0.0223
2,AGTCACGC,0.167
3,GATAGAAA,-0.0195
4,TCCCAGGA,-0.301
5,AAATCTTC,-0.025
6,GAATTCCA,-0.0319
7,AGAGAACC,-0.32
8,ACTTGGGC,-0.139
9,CCTAAGAG,-0.0999
10,TGGCCCCA,-0.186
11,AGAGAACA,0.105
12,ACATAGCC,-0.0347
13,CCCGCTGA,-0.178
14,ATTCCCGC,-0.0529
15,AGGAGCCG,-0.274
16,CCCTATTC,-0.349
17,AGGCAGAG,-0.161
18,ACTCCACC,-0.123
19,GGTGGTCA,-0.213
20,TGTGGAAA,0.128
